# Source: the supplement of paper PMC8728848
# The list shows a part of the results.
# B1: SCA (Schizophyllum commune) (protein)
# chain: MGIDQGVYLITNAGSGTAATLKDGYVKGWERIKGKEQLNQLWFVKSVKTSASDPGYAAFNLATNKVLDLEKGLADRGTPILGWDYHEGDNQHWVIKKQADGKYYKIQSVKTQTFVDLNNGGKDNGTKIQGWVGSWDETNSHQRWVFNQFSATGSRIKSILDTHPKIHGKVIVEWPDRIYFTPDQYIFEAIWAKTGLADIKPRDPLFQSEAYEKVFKGWVVSRAQEIIKVDGFDILVGSLSLVEKSTQKIKVLDVSVRTSDDKSPDLSQIVFFDPESGRTLVDIPEGYEVNSVII
# Tests used:
# Test in all cases: glycan array binding signal (z-score within array); higher = stronger binding
# Conditions in all cases: glycan notation: IUPAC condensed, linker removed
# [1] = target: Gal(b1-4)GalNAc(a1-3)[Fuc(a1-2)]Gal(b1-4)GlcNAc
# How it was run: (§1)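 Arrays were curated from the Consortium for Functional Glycomics database, 3228 in total, and kept only where the protein sequence was available. Binding is expressed as a within-array Z-score. This score was averaged across arrays of the same protein sequence at different concentrations or buffers and across linkers, and negative values can be read as non-binding.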
# [2] = target: Gal(b1-4)GalNAc(b1-3)[Fuc(a1-2)]Gal(b1-4)GlcNAc
# How it was run: as §1
# Gal(b1-4)Glc = target: Gal(b1-4)Glc
# How it was run: as §1
# Gal(b1-4)Glc6S = target: Gal(b1-4)Glc6S
# How it was run: as §1
# Gal(b1-4)GlcNAc = target: Gal(b1-4)GlcNAc
# How it was run: as §1
# [3] = target: Gal(b1-4)GlcNAc(a1-6)Gal(b1-4)GlcNAc
# How it was run: as §1
# Gal(b1-4)GlcNAc(b1-2)Man = target: Gal(b1-4)GlcNAc(b1-2)Man
# How it was run: as §1
# [4] = target: Gal(b1-4)GlcNAc(b1-2)Man(a1-3)Man(b1-4)GlcNAc(b1-4)GlcNAc
# How it was run: as §1
# [5] = target: Gal(b1-4)GlcNAc(b1-2)Man(a1-3)[Gal(b1-4)GlcNAc(b1-2)Man(a1-6)]Man(b1-4)GlcNAc(b1-4)GlcNAc
# How it was run: as §1
# [6] = target: Gal(b1-4)GlcNAc(b1-2)Man(a1-3)[Gal(b1-4)GlcNAc(b1-2)Man(a1-6)]Man(b1-4)GlcNAc(b1-4)[Fuc(a1-6)]GlcNAc
# How it was run: as §1
# [7] = target: Gal(b1-4)GlcNAc(b1-2)Man(a1-3)[Gal(b1-4)GlcNAc(b1-2)][GlcNAc(b1-4)]Man(b1-4)GlcNAc(b1-4)GlcNAc
# How it was run: as §1
# [8] = target: Gal(b1-4)GlcNAc(b1-2)Man(a1-3)[GlcNAc(b1-2)Man(a1-6)]Man(b1-4)GlcNAc(b1-4)GlcNAc
# How it was run: as §1
# [9] = target: Gal(b1-4)GlcNAc(b1-2)Man(a1-3)[Man(a1-6)]Man(b1-4)GlcNAc(b1-4)GlcNAc
# How it was run: as §1
# [10] = target: Gal(b1-4)GlcNAc(b1-2)Man(a1-6)Man(b1-4)GlcNAc(b1-4)GlcNAc
# How it was run: as §1
# [11] = target: Gal(b1-4)GlcNAc(b1-2)Man(a1-6)[GlcNAc(b1-2)Man(a1-3)]Man(b1-4)GlcNAc(b1-4)GlcNAc
# How it was run: as §1
# [12] = target: Gal(b1-4)GlcNAc(b1-2)Man(a1-6)[Man(a1-3)]Man(b1-4)GlcNAc(b1-4)GlcNAc
# How it was run: as §1
# [13] = target: Gal(b1-4)GlcNAc(b1-2)[Gal(b1-4)GlcNAc(b1-4)]Man(a1-3)[Gal(b1-4)GlcNAc(b1-2)Man(a1-6)]Man(b1-4)GlcNAc(b1-4)GlcNAc
# How it was run: as §1
# [14] = target: Gal(b1-4)GlcNAc(b1-2)[Gal(b1-4)GlcNAc(b1-4)]Man(a1-3)[Gal(b1-4)GlcNAc(b1-2)[Gal(b1-4)GlcNAc(b1-6)]Man(a1-6)]Man(b1-4)GlcNAc(b1-4)GlcNAc
# How it was run: as §1
# [15] = target: Gal(b1-4)GlcNAc(b1-2)[Gal(b1-4)GlcNAc(b1-4)]Man(a1-3)[GlcNAc(b1-4)][Gal(b1-4)GlcNAc(b1-2)Man(a1-6)]Man(b1-4)GlcNAc(b1-4)GlcNAc
# How it was run: as §1
# [16] = target: Gal(b1-4)GlcNAc(b1-2)[Gal(b1-4)GlcNAc(b1-4)]Man(a1-3)[GlcNAc(b1-4)][Gal(b1-4)GlcNAc(b1-2)[Gal(b1-4)GlcNAc(b1-6)]Man(a1-6)]Man(b1-4)GlcNAc(b1-4)GlcNAc
# How it was run: as §1
# [17] = target: Gal(b1-4)GlcNAc(b1-2)[Gal(b1-4)GlcNAc(b1-6)]Man(a1-6)[Gal(b1-4)GlcNAc(b1-2)Man(a1-3)]Man(b1-4)GlcNAc(b1-4)GlcNAc
# How it was run: as §1
# [18] = target: Gal(b1-4)GlcNAc(b1-2)[Gal(b1-4)GlcNAc(b1-6)]Man(a1-6)[GlcNAc(b1-4)][Gal(b1-4)GlcNAc(b1-2)Man(a1-3)]Man(b1-4)GlcNAc(b1-4)GlcNAc
# How it was run: as §1
# [19] = target: Gal(b1-4)GlcNAc(b1-3)Gal(b1-3)GlcNAc
# How it was run: as §1
# [20] = target: Gal(b1-4)GlcNAc(b1-3)Gal(b1-4)Glc
# How it was run: as §1
# [21] = target: Gal(b1-4)GlcNAc(b1-3)Gal(b1-4)GlcNAc
# How it was run: as §1
# [22] = target: Gal(b1-4)GlcNAc(b1-3)Gal(b1-4)GlcNAc(b1-3)Gal(b1-4)GlcNAc
# How it was run: as §1
# [23] = target: Gal(b1-4)GlcNAc(b1-3)Gal(b1-4)[Fuc(a1-3)GlcNAc(b1-6)]Gal(b1-4)Glc
# How it was run: as §1
# [24] = target: Gal(b1-4)GlcNAc(b1-3)Gal(b1-4)[Fuc(a1-3)]GlcNAc(b1-3)Gal(b1-4)[Fuc(a1-3)]GlcNAc
# How it was run: as §1
# [25] = target: Gal(b1-4)GlcNAc(b1-3)GalNAc
# How it was run: as §1
# [26] = target: Gal(b1-4)GlcNAc(b1-3)[Gal(b1-4)GlcNAc(b1-6)]Gal(b1-4)GlcNAc
# How it was run: as §1
# [27] = target: Gal(b1-4)GlcNAc(b1-3)[Gal(b1-4)GlcNAc(b1-6)]GalNAc
# How it was run: as §1
# [28] = target: Gal(b1-4)GlcNAc(b1-3)[GlcNAc(b1-6)]Gal(b1-4)GlcNAc
# How it was run: as §1
# [29] = target: Gal(b1-4)GlcNAc(b1-6)Gal(b1-4)GlcNAc
# How it was run: as §1
# [30] = target: Gal(b1-4)GlcNAc(b1-6)GalNAc
# How it was run: as §1
# [31] = target: Gal(b1-4)GlcNAc(b1-6)[Gal(b1-3)]GalNAc
# How it was run: as §1
# Gal(b1-6)Gal = target: Gal(b1-6)Gal
# How it was run: as §1
# Gal3S(b1-3)GalNAc = target: Gal3S(b1-3)GalNAc
# How it was run: as §1
# Gal3S(b1-3)GlcNAc = target: Gal3S(b1-3)GlcNAc
# How it was run: as §1
binder,measurement,setting,value
B1,glycan array binding signal (z-score),[1],-0.157
same,glycan array binding signal (z-score),[2],-0.163
same,glycan array binding signal (z-score),Gal(b1-4)Glc,-0.161
same,glycan array binding signal (z-score),Gal(b1-4)Glc6S,-0.156
same,glycan array binding signal (z-score),Gal(b1-4)GlcNAc,-0.159
same,glycan array binding signal (z-score),[3],-0.05
same,glycan array binding signal (z-score),Gal(b1-4)GlcNAc(b1-2)Man,-0.162
same,glycan array binding signal (z-score),[4],-0.157
same,glycan array binding signal (z-score),[5],-0.13
same,glycan array binding signal (z-score),[6],-0.162
same,glycan array binding signal (z-score),[7],-0.151
same,glycan array binding signal (z-score),[8],-0.158
same,glycan array binding signal (z-score),[9],-0.158
same,glycan array binding signal (z-score),[10],-0.159
same,glycan array binding signal (z-score),[11],-0.142
same,glycan array binding signal (z-score),[12],-0.161
same,glycan array binding signal (z-score),[13],-0.097
same,glycan array binding signal (z-score),[14],0.585
same,glycan array binding signal (z-score),[15],-0.15
same,glycan array binding signal (z-score),[16],0.172
same,glycan array binding signal (z-score),[17],0.05
same,glycan array binding signal (z-score),[18],-0.134
same,glycan array binding signal (z-score),[19],-0.161
same,glycan array binding signal (z-score),[20],-0.16
same,glycan array binding signal (z-score),[21],-0.163
same,glycan array binding signal (z-score),[22],-0.12
same,glycan array binding signal (z-score),[23],-0.156
same,glycan array binding signal (z-score),[24],-0.154
same,glycan array binding signal (z-score),[25],-0.159
same,glycan array binding signal (z-score),[26],-0.048
same,glycan array binding signal (z-score),[27],-0.124
same,glycan array binding signal (z-score),[28],-0.159
same,glycan array binding signal (z-score),[29],-0.162
same,glycan array binding signal (z-score),[30],-0.148
same,glycan array binding signal (z-score),[31],-0.144
same,glycan array binding signal (z-score),Gal(b1-6)Gal,-0.162
same,glycan array binding signal (z-score),Gal3S(b1-3)GalNAc,-0.159
same,glycan array binding signal (z-score),Gal3S(b1-3)GlcNAc,-0.162
